According to PubChem BioAssay AID540317 (National Center for Advancing Translational Sciences (NCATS), 2011):
Among all 390,000 compounds or so, about 2,200 (0.56%) were called active. Inconclusive means that the source gave no clear call. Such entries were picked first, then a sample of the others. Calls come from the whole dose curve; as a rule, active = well fitted inhibition curve with a large enough effect; inconclusive = small, poorly fitted or top-dose-only effect; inactive = no such curve, though single readings can be large or run the other way. Where the call is inconclusive, the potency comes from a doubtful curve fit.

Target: Chromobox protein homolog 1 (Homo sapiens) (UniProt P83916)
Sequence of UniProt P83916 (P83916 whole entry, looked up): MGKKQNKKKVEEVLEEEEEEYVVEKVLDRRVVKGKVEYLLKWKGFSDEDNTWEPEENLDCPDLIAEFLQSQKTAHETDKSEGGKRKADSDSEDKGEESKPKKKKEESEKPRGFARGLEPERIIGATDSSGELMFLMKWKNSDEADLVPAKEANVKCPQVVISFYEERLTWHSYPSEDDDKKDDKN
Assay: HTS for Inhibitors of HP1-beta Chromodomain Interactions with Methylated Histone Tails; note: nearly all actives have a fitted effect of over 70% in size
Conditions: AlphaScreen HP1-beta / biotin-H3K9me3 peptide binding; series mostly up to 114 µM
Method in brief: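 AlphaScreen: HP1-beta (50 nM) preformed 30 min with biotin-H3(1-18)K9me3 peptide (50 nM) in PBS pH 7.4, 0.01% Tween-20. Compound added for 30 min at RT, then streptavidin donor/nickel chelate acceptor beads (10 ug/mL) for 30 min.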
Potency is the fitted concentration of half-maximal effect; tags give direction and shape of the fitted curve.

| Structure (SMILES) | Potency |
| --- | --- |
| Cc1nc(Cl)c(Cl)n1CCOc1ccccc1 | inconclusive: 35.5 µM [inhibitor, partial curve] |
| CCc1ccc(OCCCCN(C)Cc2ccccc2)cc1 | inconclusive: 28.2 µM [inhibitor, partial curve, poor fit] |
| CC1=C(C#N)C(=O)NC(=O)/C1=C\c1ccc(-c2cc(C)c(C)cc2[N+](=O)[O-])o1 | inconclusive: 50.1 µM [inhibitor, partial curve, poor fit] |
| Cc1ccc(O)c(NC(=O)c2cc(-c3ccc(F)cc3)no2)c1 | inconclusive: 31.6 µM [inhibitor, partial curve] |
| O=S1(=O)N=C(Nc2nncs2)c2ccccc21 | inactive |
| Cc1ccc(S(=O)(=O)N(C)c2ccc(C(=O)NCc3cccnc3)cc2)cc1 | inactive |
| CCOc1ccccc1N1CSC2=C(C#N)C(c3c(OC)ccc4ccccc34)CC(=O)N2C1 (configuration not stated) | inconclusive: 17.8 µM [inhibitor, full curve, poor fit] |
| Cc1cccc(NC(=O)CCc2c(C)nc3ncnn3c2C)n1 | inconclusive: 35.5 µM [inhibitor, single point] |
| CCOc1cccc(NCc2cc3c(C(C)(C)C)nn(-c4ccccc4)c3[nH]c2=O)c1 | inconclusive: 35.5 µM [inhibitor, partial curve] |
| Cc1cn(CCC(=O)Nc2ccccc2N2CCOCC2)c2ccccc12 | inactive |
| Cc1cc(/C=C2/NC(=O)NC2=O)c(C)n1-c1ccc(N2CCOCC2)cc1 | inconclusive: 50.1 µM [inhibitor, partial curve, poor fit] |
| CC1=C(C#N)C(c2ccccc2)C2=C(N1)c1ccccc1C2=O (configuration not stated) | inconclusive: 14.1 µM [inhibitor, full curve, poor fit] |
| Cc1cccc2nc(-c3ccccn3)c(Nc3ccccc3)n12 | inactive |
| O=C(CN(Cc1ccco1)C(=O)c1cc(=O)[nH]c2ccccc12)Nc1ccccc1C(F)(F)F | inconclusive: 89.1 µM [inhibitor, partial curve] |
| Cc1ccc2c(CC(=O)N(Cc3ccc(N(C)C)cc3)Cc3ccco3)coc2c1C | inconclusive: 11.2 µM [inhibitor, full curve, poor fit] |
| CCCc1nc2ccc(NC(=O)c3cccs3)cc2c(=O)n1Cc1ccccc1Cl | inconclusive: 39.8 µM [inhibitor, single point] |
| O=C(Cn1cnc2sc(-c3ccccc3)cc2c1=O)NCc1ccco1 | active: 8.91 µM |
| Cc1ccc(CN2CCN(/N=C/c3cccn3C)CC2)c(C)c1 | inconclusive: 20 µM [inhibitor, full curve] |
| Cc1ccc(NCCN(C)C)c2c(=O)c3cc(O)ccc3sc12 | inconclusive: 56.2 µM [inhibitor, partial curve, poor fit] |
| O=[N+]([O-])c1c(NCc2ccco2)ncnc1NCc1ccco1 | inconclusive: 56.2 µM [inhibitor, partial curve, poor fit] |
| Cc1cccnc1NC(=O)CN1C(=O)COc2ccc(Cl)cc21 | inactive |
| Cc1cc(C)n(-c2nnc(NCc3ccc(Cl)cc3)nn2)n1 | inconclusive: 44.7 µM [inhibitor, partial curve] |
| CCOC(=O)C1CCCN(Cc2cccc(Cl)c2)C1 (configuration not stated) | inconclusive: 70.8 µM [inhibitor, single point] |

| Structure (SMILES) | Potency |
| --- | --- |
| CNCCOc1ccccc1-c1ccccc1 | inactive |
| O=[N+]([O-])C(=C1Nc2ccccc2N1)/C(Cl)=C(/Cl)Br | inconclusive: 20 µM [inhibitor, full curve, poor fit] |
| CCCN(CC(=O)Nc1ccccc1C)C(=O)c1ccc(N2CCCCC2)c([N+](=O)[O-])c1 | inactive |
| Cc1cc(C)c(OCC(=O)N(Cc2ccc(N(C)C)cc2)Cc2ccco2)c(C)c1 | inconclusive: 20 µM [inhibitor, full curve, poor fit] |
| Cc1cc(C)cc(NC(=O)COc2cccc3c(=O)n(C)ccc23)c1 | inactive |
| O=C(N/N=C/c1cccc([N+](=O)[O-])c1)c1ccccc1-n1cccc1 | inconclusive: 79.4 µM [inhibitor, single point] |
| CCn1c(CNC(=O)c2cccs2)n[nH]c1=S | inconclusive: 89.1 µM [inhibitor, single point] |
| COc1ccc(NC(=S)N/N=C2/CCCc3c(C)cc(C)cc32)cc1 | inactive |
| FC(F)Sc1nc2ccccc2[nH]1 | inactive |
| S=c1nc(-c2csc3c2CCCC3)[nH][nH]1 | inconclusive: 10 µM [inhibitor, full curve] |
| CCN(CC)c1ccc(/C=N/N(c2ccccc2)c2ccccc2)c(O)c1 | inconclusive: 44.7 µM [inhibitor, partial curve] |
| O=[N+]([O-])c1ccc(N2CCCCCC2)c([N+](=O)[O-])c1 | inconclusive: 31.6 µM [inhibitor, partial curve, poor fit] |
| Cc1c(C(=O)c2ccc(Cl)cc2Cl)cnc2cc3c(cc12)OCO3 | inconclusive: 35.5 µM [inhibitor, partial curve, poor fit] |
| Cc1ccccc1CNC(=O)Cn1c(=O)c2cccn2c2cccnc21 | inactive |
| CCCCC1NC(C(=O)O)CS1 (configuration not stated) | inconclusive: 56.2 µM [inhibitor, single point] |
| O=C(COC(=O)Cc1cccc(C(F)(F)F)c1)NCc1ccco1 | inconclusive: 50.1 µM [inhibitor, partial curve] |
| CC(=O)Oc1ccc(N2C(=O)C3C4C=CC(O4)C3C2=O)cc1 (configuration not stated) | inconclusive: 100 µM [inhibitor, single point] |
| COc1ccc(-c2nn3c(C4CCCCC4)nnc3s2)cc1OC | inconclusive: 14.1 µM [inhibitor, full curve, poor fit] |
| CCc1cccc(NC(=O)c2cc3c(=O)n(Cc4ccccc4)ccc3nc2C)c1 | inconclusive: 89.1 µM [inhibitor, partial curve, poor fit] |
| Cc1nn(S(=O)(=O)c2ccc(C(C)C)cc2)c(C)c1S(=O)(=O)N1CCOCC1 | inactive |
| CC(C)n1c(=O)c2c(O)cc(=O)oc2c2ccccc21 | inactive |
| Cc1ccc(C(=O)NC(=S)Nc2ccc(N3CCOCC3)cc2)cc1 | inconclusive: 15.8 µM [inhibitor, full curve] |
| CCOC(=O)Cc1cnc(NC(=O)CSc2nc(N)cc(=O)[nH]2)s1 | inconclusive: 20 µM [inhibitor, partial curve, poor fit] |

| Structure (SMILES) | Potency |
| --- | --- |
| Cc1cccc(NC(=O)CSc2nc3c(c(=O)[nH]2)CCC3)c1C | inconclusive: 35.5 µM [inhibitor, partial curve, poor fit] |
| COc1ccc(C2Oc3ccccc3C3=C2C(c2cccs2)n2ncnc2N3)cc1 (configuration not stated) | inconclusive: 0.891 µM [inhibitor, full curve, poor fit] |
| Nc1c(S(=O)(=O)O)cc(NC(=O)c2ccccc2)c2c1C(=O)c1ccccc1C2=O | inconclusive: 5.62 µM [inhibitor, full curve] |
| Cc1nc(N)sc1-c1csc(Nc2cccc(O)c2)n1 | inconclusive: 79.4 µM [inhibitor, partial curve] |
| COCCNS(=O)(=O)c1ccc2c(c1)C(=O)c1cc(S(=O)(=O)NCCOC)ccc1-2 | inconclusive: 12.6 µM [inhibitor, partial curve, poor fit] |
| CN(C)c1ccc(NC(=O)CN2CCc3ccccc3C2)cc1 | inconclusive: 56.2 µM [inhibitor, partial curve, poor fit] |
| CCC(C(=O)Nc1nnc(-c2ccco2)s1)c1ccccc1 (configuration not stated) | inactive |
| CC(=O)Oc1ccc(N2C(=O)C3C(C2=O)C(C(=O)c2ccc(Cl)cc2)N2CCCC32)cc1 (configuration not stated) | inconclusive: 39.8 µM [inhibitor, full curve] |
| CCOc1cc(C(N)=O)cc(Cl)c1OCc1ccccc1 | inactive |
| NS(=O)(=O)c1ccc(CNC(=O)/C=C/c2ccco2)cc1 | inconclusive: 70.8 µM [inhibitor, partial curve] |
| COCCn1c(C)cc(C(=O)CSc2nc3ccccc3c(=O)n2C(C)COC)c1C (configuration not stated) | inconclusive: 50.1 µM [inhibitor, partial curve, poor fit] |
| O=C(CCNC(=O)Cn1cnc2ccccc2c1=O)NCC1COc2ccccc2O1 (configuration not stated) | inconclusive: 8.91 µM [inhibitor, single point] |
| Cc1ccc(O)c(NS(=O)(=O)c2cccc3nsnc23)c1 | inconclusive: 39.8 µM [inhibitor, full curve] |
| CS(=O)(=O)N(CC(=O)NCc1ccco1)c1ccc(OCc2ccccc2)cc1 | inconclusive: 79.4 µM [inhibitor, partial curve, poor fit] |
| CC(O)CNc1nc2sc3c(c2c(=O)n1CCc1ccccc1)CCCCC3 (configuration not stated) | inconclusive: 35.5 µM [inhibitor, partial curve, poor fit] |
| CC(OC(=O)CCN=C1NS(=O)(=O)c2ccccc21)C(=O)Nc1ccc(F)cc1 (configuration not stated) | inactive |
| S=C1NC(C23CC4CC(CC(C4)C2)C3)=CC(c2ccc3c(c2)OCO3)N1 (configuration not stated) | inconclusive: 15.8 µM [inhibitor, partial curve, poor fit] |
| O=C(NCC1CCCO1)/C(=C/c1ccccc1F)NC(=O)c1ccccc1 (configuration not stated) | inactive |
| CC(C)(C)Cc1nnc(NC(=O)CSc2ccccc2)s1 | inconclusive: 8.91 µM [inhibitor, full curve, poor fit] |
| C=CCNCCOCCOc1ccc(C)cc1Br | inconclusive: 56.2 µM [inhibitor, single point] |
| Cc1cc2nc(-c3cccc(NC(=O)c4cccc5ccccc45)c3)oc2cc1C | inactive |
